Experimental findings from PMC4336329 (PLoS ONE, 2015) are described below.

In all, about 310,000 compounds went through this assay and about 14,000 (4.5%) showed an effect of 50% or more. Effects have a minus sign here. This is one part of the list.
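Note: peak tail current of the secondary pulse compared with the same well before compound.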

In this experiment the target is human ether-à-go-go-related gene (hERG) potassium channel (human, UniProt Q12809). The experiment can be described thus: primary screen, population patch clamp on CHO cells stably expressing hERG.
Chain of human ether-à-go-go-related gene (hERG) potassium channel (Q12809 whole entry, looked up): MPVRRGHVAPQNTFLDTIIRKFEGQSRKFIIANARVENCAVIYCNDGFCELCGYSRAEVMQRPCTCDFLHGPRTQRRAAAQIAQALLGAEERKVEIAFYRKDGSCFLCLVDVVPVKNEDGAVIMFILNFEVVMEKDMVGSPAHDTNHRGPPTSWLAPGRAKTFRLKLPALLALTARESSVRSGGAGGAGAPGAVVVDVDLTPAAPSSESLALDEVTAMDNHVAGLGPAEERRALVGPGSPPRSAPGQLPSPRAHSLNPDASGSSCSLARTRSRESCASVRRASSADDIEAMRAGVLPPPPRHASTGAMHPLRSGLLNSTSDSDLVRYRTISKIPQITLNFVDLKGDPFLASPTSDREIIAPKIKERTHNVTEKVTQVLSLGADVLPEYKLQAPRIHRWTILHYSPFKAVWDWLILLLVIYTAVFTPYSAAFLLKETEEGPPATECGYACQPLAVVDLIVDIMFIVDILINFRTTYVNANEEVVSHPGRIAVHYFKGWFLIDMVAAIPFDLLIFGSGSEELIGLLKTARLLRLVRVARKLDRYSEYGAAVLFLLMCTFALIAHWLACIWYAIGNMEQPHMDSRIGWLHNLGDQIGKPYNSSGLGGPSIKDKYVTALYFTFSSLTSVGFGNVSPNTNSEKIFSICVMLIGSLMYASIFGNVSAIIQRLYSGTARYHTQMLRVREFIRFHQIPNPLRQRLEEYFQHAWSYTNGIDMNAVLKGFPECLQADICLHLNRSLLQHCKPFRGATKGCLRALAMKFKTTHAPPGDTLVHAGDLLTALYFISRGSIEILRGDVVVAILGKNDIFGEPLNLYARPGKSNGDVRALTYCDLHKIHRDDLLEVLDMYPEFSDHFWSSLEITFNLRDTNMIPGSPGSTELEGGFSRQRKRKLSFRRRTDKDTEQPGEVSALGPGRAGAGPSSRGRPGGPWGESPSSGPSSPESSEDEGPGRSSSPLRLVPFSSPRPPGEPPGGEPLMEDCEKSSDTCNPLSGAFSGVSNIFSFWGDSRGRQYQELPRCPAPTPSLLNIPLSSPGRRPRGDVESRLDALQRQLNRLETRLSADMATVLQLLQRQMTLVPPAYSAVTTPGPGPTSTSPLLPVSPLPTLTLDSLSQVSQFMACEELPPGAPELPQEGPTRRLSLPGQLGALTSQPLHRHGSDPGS
Regarding `COc1ccc(-n2nnnc2SCC(=O)Nc2cccc(O)c2)cc1`, the “hERG current change (%, negative = inhibition) at 10uM” value is listed as -4.09%.

On to `CCCn1c(=O)c(C(=O)Nc2ncccc2O)c(O)c2ccccc21`, for which the “hERG current change (%, negative = inhibition) at 10uM” value is on record as 11.1%.

Take `COc1ccc(/C=N/OCC(=O)N2CC3(C)CC2CC(C)(C)C3)cc1` (stereo not drawn): the “hERG current change (%, negative = inhibition) at 10uM” value is given as -56%.

As to `CCc1nc2ccc(C(=O)N3CCN(c4cccc(Cl)c4)CC3)cc2nc1CC`, the “hERG current change (%, negative = inhibition) at 10uM” value worked out at 1.12%.

With `CC(=O)c1cccc(NC(=O)CN2CCc3cc4c(cc3C2C)OCCCO4)c1` (stereo not drawn), the “hERG current change (%, negative = inhibition) at 10uM” value is listed as -27.8%.

In the case of `CN(C(=O)C1CC1)C1CCS(=O)(=O)C1` (stereo not drawn), the “hERG current change (%, negative = inhibition) at 10uM” value is listed as 14.7%.

For the molecule `CCN(CC)CCOC(=O)C1(c2ccc([N+](=O)[O-])cc2)CCCC1.Cl`, the “hERG current change (%, negative = inhibition) at 10uM” value is recorded as -48.6%.

Take `Cc1ccc(N2C(=O)c3ccccc3C2=O)cc1`: the “hERG current change (%, negative = inhibition) at 10uM” value was determined as 11.1%.

On to `COc1ccccc1NC(=O)C(=O)N/N=C(\C)CC(=O)Nc1ccccn1`, for which the “hERG current change (%, negative = inhibition) at 10uM” value came to 10.8%.

As for `CC(=O)c1ccccc1C(=O)N(C)C1CCCN(Cc2ccccc2F)C1` (stereo not drawn), the “hERG current change (%, negative = inhibition) at 10uM” value is 15.2%.

Regarding `C[C@H](NC(=O)c1[nH]cnc1C(=O)Nc1ccccc1)c1ccccc1`, the “hERG current change (%, negative = inhibition) at 10uM” value was 3.23%.

For the molecule `CCCC(=O)NC(=S)Nc1sc2c(c1C(N)=O)CCC2`, the “hERG current change (%, negative = inhibition) at 10uM” value worked out at 11.7%.

With `COc1ccccc1N(CC(=O)Nc1ccc(S(=O)(=O)N2CCOCC2)cc1)S(C)(=O)=O`, the “hERG current change (%, negative = inhibition) at 10uM” value is reported as 3.87%.

`CC(C)C1Cc2c(sc3c2c(=O)n(Cc2ccccc2)c2nncn32)CO1` (stereo not drawn): the “hERG current change (%, negative = inhibition) at 10uM” value is reported as -11%.

As to `COc1cccc(CNC(=O)CN(C)S(=O)(=O)c2ccc3c(c2)CC(C)N3C(C)=O)c1` (stereo not drawn), the “hERG current change (%, negative = inhibition) at 10uM” value was 23.3%.

Regarding `O=C(Nc1ccccc1)N1CCc2scc[n+]2-c2ccccc21.[Br-]`, the “hERG current change (%, negative = inhibition) at 10uM” value is on record as 6.01%.

Consider `Cc1cc(C(=O)Cn2c(CO)nc3ccccc32)c(C)n1C`, for which the “hERG current change (%, negative = inhibition) at 10uM” value is listed as 26.7%.

In the case of `O=C(O)c1ccc(N2CCCCC2)cc1`, the “hERG current change (%, negative = inhibition) at 10uM” value is reported as 7.42%.

`COC(=O)Nc1nnc(-c2ccccc2Cl)s1`: the “hERG current change (%, negative = inhibition) at 10uM” value came out at 0.0234%.

For the molecule `N#Cc1cnc2nc(SCc3ccccc3)nn2c1`, the “hERG current change (%, negative = inhibition) at 10uM” value is given as 9.96%.

`COc1cc(C2C(C(=O)c3cccs3)=C(O)C(=O)N2CCN2CCOCC2)cc(OC)c1OC` (stereo not drawn): the “hERG current change (%, negative = inhibition) at 10uM” value stood at 14.3%.

Consider `O=C1NC2(CCCCC2)N=C1c1ccc(F)cc1`, for which the “hERG current change (%, negative = inhibition) at 10uM” value is reported as -2.35%.

For `CCC(=NC1CCN(Cc2ccccc2)CC1)c1c(O)[nH]c(=O)[nH]c1=O`, the “hERG current change (%, negative = inhibition) at 10uM” value was -52.4%.

`COC(=O)c1ccc(C2Nc3cccc4cccc(c34)N2)cc1`: the “hERG current change (%, negative = inhibition) at 10uM” value is on record as -5.77%.

Take `COc1cccc2c1cc1c(=O)n(CC(=O)NCc3ccccn3)nc(C)n12`: the “hERG current change (%, negative = inhibition) at 10uM” value is on record as 13.4%.

For the molecule `CCCC(=O)Nc1ccc(Cl)c(NC(=O)CC)c1`, the “hERG current change (%, negative = inhibition) at 10uM” value turned out to be 4.92%.

With `Cc1ccnc(NC(=O)c2ccco2)n1`, the “hERG current change (%, negative = inhibition) at 10uM” value stood at 3.69%.

Take `CCc1nnc(NS(=O)(=O)c2ccc(NC(=O)c3cccc(Cl)c3)cc2)s1`: the “hERG current change (%, negative = inhibition) at 10uM” value was 2.1%.

As for `CN(C)S(=O)(=O)c1cccc(NC(=O)COc2nc3ccccc3nc2N2CCOCC2)c1`, the “hERG current change (%, negative = inhibition) at 10uM” value is -22.4%.

As to `CC(C)N(C(=O)c1ccc2nc(-c3ccccc3)c(-c3ccccc3)nc2c1)C(C)C`, the “hERG current change (%, negative = inhibition) at 10uM” value is on record as -4.73%.

In the case of `Cc1nc(=O)c(-c2ccccc2)c(C)n1-c1ccc(C(=O)O)cc1`, the “hERG current change (%, negative = inhibition) at 10uM” value is 10.1%.

For the molecule `COCCn1c(=NC(=O)CCS(=O)(=O)c2ccccc2)sc2cc(C)ccc21`, the “hERG current change (%, negative = inhibition) at 10uM” value came out at 0.609%.

For `CC(=O)NCCC(=O)NCc1ccc(F)cc1`, the “hERG current change (%, negative = inhibition) at 10uM” value is listed as -13.7%.

With `NC(=O)c1cc(S(=O)(=O)NCCCc2ccco2)cs1`, the “hERG current change (%, negative = inhibition) at 10uM” value is listed as 12.8%.

For `COc1ncc(-c2ccc3c(c2)S(=O)(=O)c2cccc(C(=O)NCc4ccco4)c2C3=O)cn1`, the “hERG current change (%, negative = inhibition) at 10uM” value came to 0.598%.

As to `Cc1cc(C(=O)NCc2ccco2)no1`, the “hERG current change (%, negative = inhibition) at 10uM” value is 10.2%.

On to `COC(=O)c1sc2nc(SCc3ccccc3C)n(N)c(=O)c2c1C`, for which the “hERG current change (%, negative = inhibition) at 10uM” value is on record as 10.7%.

Turning to `O=S(=O)(c1cccc(-c2nnc(SC(F)F)n2-c2ccccc2)c1)N1CCCCC1`, the “hERG current change (%, negative = inhibition) at 10uM” value was -30.3%.

Turning to `Cc1cc(-c2nc(C)c(-c3nnc(SCC(=O)Nc4cc(Cl)cc(Cl)c4)n3C)s2)no1`, the “hERG current change (%, negative = inhibition) at 10uM” value is reported as 5.93%.

For the molecule `O=C(Nc1ccc(S(=O)(=O)N2CCCC2)cc1)c1c(F)cccc1F`, the “hERG current change (%, negative = inhibition) at 10uM” value is given as 7.76%.

On to `CCOC(=O)c1c(CN2CCOCC2)n(C)c2cc(Br)c(O)c(CN(C)C)c12`, for which the “hERG current change (%, negative = inhibition) at 10uM” value is -27.4%.

Consider `Cn1c(O)c(N=Nc2ccc(S(=O)(=O)N3CCOCC3)cc2)c(=O)n(C)c1=O`, for which the “hERG current change (%, negative = inhibition) at 10uM” value came out at 10.8%.

In the case of `O=C(CCc1ccccc1)Nc1cc(Cl)ccc1O`, the “hERG current change (%, negative = inhibition) at 10uM” value was -3.5%.

As to `Cc1cccc(CC2CC(=O)N(c3ccccc3)C2=O)c1` (stereo not drawn), the “hERG current change (%, negative = inhibition) at 10uM” value is given as -1.28%.

Consider `COc1ccc(NC(=O)CS(=O)CC(=O)Nc2ccc(F)cc2F)cc1` (stereo not drawn), for which the “hERG current change (%, negative = inhibition) at 10uM” value is listed as -24.7%.

Take `O=C(c1cc2cc(Br)ccc2oc1=O)N1CCCC1`: the “hERG current change (%, negative = inhibition) at 10uM” value is given as -16.2%.

Turning to `Cc1onc(C(=O)N2CCN(Cc3ccccc3)CC2)c1[N+](=O)[O-]`, the “hERG current change (%, negative = inhibition) at 10uM” value is -10.7%.

Consider `O=C(NCCCN1CCOCC1)C1CCN(S(=O)(=O)c2c(Cl)cccc2Cl)CC1`, for which the “hERG current change (%, negative = inhibition) at 10uM” value was -9.04%.

Turning to `O=C(NC1CC1)c1cc2c(F)cccc2s1`, the “hERG current change (%, negative = inhibition) at 10uM” value is recorded as -42.1%.

Take `O=C(O)c1cnc2[nH]c3ccccc3n2c1=O`: the “hERG current change (%, negative = inhibition) at 10uM” value is 0.816%.

For `Fc1ccc(CN2CCN(C(c3ccccc3)c3ccccc3)CC2)cc1.O=C(O)C(=O)O`, the “hERG current change (%, negative = inhibition) at 10uM” value is given as 15%.

Regarding `CC(C)NC(=O)N1c2ccccc2Sc2ccccc21`, the “hERG current change (%, negative = inhibition) at 10uM” value came to 13.2%.

As to `CCOC(=O)c1ccc(NC(=O)c2ccccc2[N+](=O)[O-])cc1`, the “hERG current change (%, negative = inhibition) at 10uM” value is listed as -8.35%.

Regarding `CN1CCc2c(sc(N)c2C(=O)O)C1`, the “hERG current change (%, negative = inhibition) at 10uM” value was determined as 20.8%.

In the case of `CC(C)(C)NC(=O)C(c1ccncc1)N(Cc1ccc(F)cc1)C(=O)c1ccc(-c2ccccc2)[nH]1` (stereo not drawn), the “hERG current change (%, negative = inhibition) at 10uM” value was 12.7%.

Turning to `CCCN1CCC(NC(=O)CCc2nnc(Cc3cc(OC)ccc3OC)o2)CC1`, the “hERG current change (%, negative = inhibition) at 10uM” value is listed as 20.6%.

Consider `Cc1sc2nc3c4ccccc4c(NCc4ccco4)nn3c(=O)c2c1C`, for which the “hERG current change (%, negative = inhibition) at 10uM” value is on record as -56.6%.
